Test results reported in PubChem BioAssay AID504832 (National Center for Advancing Translational Sciences (NCATS), 2011).
Among all 310,000 compounds or so, about 18,000 (5.8%) were called active. The inconclusive results got no clear call from the source; some entries with a clear call stand among them for comparison. Calls follow the shape of the dose curve; as a rule, active = well fitted inhibition curve with a large enough effect; inconclusive = small, poorly fitted or top-dose-only effect, or another doubt; inactive = no such curve, though single readings can be large or run the other way. No potency is given beside an inconclusive call; the fits are too rough.

Assay: Primary qHTS for delayed death inhibitors of the malarial parasite plastid, 48 hour incubation
Details: P. falciparum luciferase growth in erythrocytes; series mostly up to 28.7 µM; activity change, negative = inhibition: at the top concentration
Summary of the method: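 A one-generation exposure of luciferase-tagged malaria parasites in RPMI 1640/Albumax erythrocyte culture, 37 C and 5% CO2. Inhibition is inferred from decreased luminescence after adding detection reagent.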
% is scaled to controls: 0 for no effect and ±100 for the full control effect; potency is read from the fitted curve at half-maximal effect; tags tell the direction and shape of the fitted curve.

| Compound | Potency | activity change, negative = inhibition |
| --- | --- | --- |
| Cc1ccc(-n2nc(C)c3c(C)c(CCC(=O)Nc4ccc(CN5CCCC5)cc4)c(C)nc32)cc1 | inconclusive [inhibitor, full curve] | – |
| O=C(NCc1ccco1)c1nn2c(C(F)(F)F)cc(-c3cccs3)nc2c1Br | inconclusive [inhibitor, single point] | – |
| CCOC(=O)c1nc2ccccc2c(=O)n1-c1ccc(C)cc1 | inconclusive [inhibitor, partial curve, poor fit] | – |
| Cc1ccc2nc(SCC(=O)c3ccc4c(c3)NC(=O)CO4)[nH]c2c1 | inconclusive [inhibitor, partial curve, poor fit] | – |
| CCC(=O)N1CC2(CC(c3cccc(NC(=O)CC(c4ccccc4)c4ccccc4)c3)=NO2)C[C@H]1C(N)=O (stereo partly specified) | – | inactive: 35.6% |
| CC(C)(C)S(=O)(=O)c1cnc(-c2ccc(Cl)cc2)nc1N | – | inactive: 49.2% |
| CCN(CC)S(=O)(=O)c1ccc(N2CCOCC2)c(NC(=O)Cc2ccc(Cl)cc2)c1 | active: 11.7 µM | – |
| O=C(NCc1cccs1)C1CCN(c2ccc(S(=O)(=O)N3CCOCC3)cc2Cl)CC1 | active: 4.65 µM | – |
| CC(C)CC(COCc1ccc(Cl)cc1)N1CCN(C(=O)c2cccc(C(F)(F)F)c2)CCC1=O (stereo unspecified) | inconclusive [inhibitor, single point] | – |
| COc1ccccc1/C=C/C(=O)OCC(=O)N1CCN(S(=O)(=O)c2ccc(C)cc2C)CC1 | inconclusive [inhibitor, partial curve, poor fit] | – |
| Cn1nc(N)c2c1N=P(N1CCOCC1)(N1CCOCC1)N=C2c1ccccc1 | inconclusive [inhibitor, full curve, poor fit] | – |
| COc1ccc(C(C)=O)cc1CSc1nnc(Nc2ccccc2C)s1 | inconclusive [inhibitor, partial curve] | – |
| COc1cc(OC)cc(C(=O)N=c2sc3ccccc3n2C)c1 | – | inactive: 351% |
| COc1ccc(-c2cc(C(F)(F)F)nc(SCC(=O)NCc3cccs3)n2)cc1OC | inconclusive [inhibitor, single point] | – |
| COc1ccccc1NS(=O)(=O)c1cc(N)ccc1N1CCCCC1 | active: 14.7 µM | – |
| COc1ccccc1N1CCN(C2CCN(S(=O)(=O)c3ccc4ccccc4c3)CC2)CC1 | active: 13.1 µM | – |
| COc1cc(CCC(=O)OCC(=O)Nc2ccc(F)cc2F)cc(OC)c1OC | – | inactive: 0% |
| CCc1ncc(CN2CCC(C(=O)Nc3ccc(-n4nc(C)cc4C)cc3)CC2)cn1 | inconclusive [inhibitor, full curve] | – |
| CNS(=O)(=O)c1cnccc1N1CCN(c2cccc(C(F)(F)F)c2)CC1 | inconclusive [inhibitor, full curve, poor fit] | – |
| CCc1nc(N2CCC(C)CC2)c2oc3ccccc3c2n1 | inconclusive [inhibitor, single point] | – |
| COc1ccc(-c2cc3nc(C)cc(N4CC(C)CC(C)C4)n3n2)cc1 (stereo unspecified) | inconclusive [inhibitor, single point] | – |
| CCOc1cccc(-c2csc(C3COc4ccccc4O3)n2)c1 (stereo unspecified) | – | inactive: 111% |

| Compound | Potency | activity change, negative = inhibition |
| --- | --- | --- |
| COC(=O)c1ccc(COc2ccccc2/C=C(\C#N)C(=O)Nc2c(C)cc(C)cc2C)cc1 | inconclusive [inhibitor, single point] | – |
| CN(C)C(=O)N1CCCC(C(=O)NCc2ccccc2)C1 (stereo unspecified) | – | inactive: 20.1% |
| CC1CCC2(CC1)OCC1(CCC3(COC4(CCC(C)CC4)OC3)C1=O)CO2 (stereo unspecified) | – | inactive: -1.58% |
| COc1cccc(NC(=O)NC2CCN(Cc3nnnn3Cc3ccc4c(c3)OCO4)CC2)c1 | inconclusive [inhibitor, partial curve] | – |
| CCN(CCCNC(=O)CCn1c(=O)[nH]c2ccccc2c1=O)c1cccc(C)c1 | inconclusive [inhibitor, partial curve] | – |
| COc1ccc(CCNC(=O)C(Sc2ccccn2)c2ccccc2)cc1OC (stereo unspecified) | inconclusive [inhibitor, partial curve, poor fit] | – |
| Oc1ccc(-n2nnnc2SCc2c(F)cccc2Cl)cc1 | inconclusive [inhibitor, single point] | – |
| COC(=O)C1=CN(CCOC23CC4CC(CC(C4)C2)C3)C=C(C(=O)OC)C1c1ccsc1 | inconclusive [inhibitor, partial curve, poor fit] | – |
| COc1ccc(C(=O)C(C)(C)NO)cc1 | inconclusive [inhibitor, full curve, poor fit] | – |
| COc1cc([N+](=O)[O-])ccc1NC(=O)CSc1n[nH]c(C(C)C)n1 | inconclusive [inhibitor, single point] | – |
| COC(=O)C1=C(C)NC(=O)NC1c1cn(-c2ccccc2)nc1-c1cccs1 (stereo unspecified) | inconclusive [inhibitor, single point] | – |
| Cc1ccc(NC(=S)N(CCN(C)C)C(C)c2ccco2)cc1Cl (stereo unspecified) | inconclusive [inhibitor, single point] | – |
| Nc1ccc2ccc3cccc[n+]3c2c1 | active: 0.415 µM | – |
| CCCCCCn1c(SCC(=O)Nc2cc(C)on2)nc2ccccc2c1=O | inconclusive [inhibitor, partial curve] | – |
| CC(C)CN(C(=O)CCc1ccccc1Cl)c1c(N)n(Cc2ccccc2)c(=O)[nH]c1=O | inconclusive [inhibitor, single point] | – |
| Cn1c(CNC(=O)c2ccc(Cl)cc2)nnc1SCC(=O)N1CCOCC1 | – | inactive: 16.3% |
| CCN(c1ccc(OCC(=O)OCC(=O)Nc2ccc(F)c(F)c2F)cc1)S(=O)(=O)c1ccccc1 | – | inactive: -3.9% |
| Cc1ccccc1NC1=NC(=S)N(c2ccccc2)C12CCCCC2 | inconclusive [inhibitor, single point] | – |
| Cc1nonc1NC(=O)CSc1nnc(-c2ccoc2C)n1-c1cccc(Cl)c1 | inconclusive [inhibitor, partial curve] | – |
| Cc1c(C(=O)NN)sc(-c2ccccc2)c1C#N | inconclusive [inhibitor, partial curve, poor fit] | – |
| O=C1CCCN2N=C(SCC(=O)Nc3cccc(C(F)(F)F)c3)SC2=N1 | inconclusive [inhibitor, partial curve, poor fit] | – |
| CN1CCN(c2ccc([N+](=O)[O-])cc2NC(=O)c2ccccc2Cl)CC1 | active: 11.7 µM | – |

| Compound | Potency | activity change, negative = inhibition |
| --- | --- | --- |
| COc1cccc(N(C(=O)Cn2nnc3ccccc32)C(C(=O)NCc2ccco2)c2cccnc2)c1 (stereo unspecified) | active: 8.28 µM | – |
| COc1ccc(/C=C2\SC(=S)N(CCCC(=O)N3CCCCC3CCO)C2=O)cc1 (stereo unspecified) | inconclusive [inhibitor, single point] | – |
| CCOC(=O)N1CCC(=NNC(=O)c2cc3ccccc3cc2O)CC1 | – | inactive: -26.2% |
| C=CCOn1c(=O)c(-c2cc3ccccc3o2)[n+]([O-])c2ccccc21 | inconclusive [inhibitor, partial curve, poor fit] | – |
| C[N+]1(CCC(C(N)=O)(c2ccccc2)c2ccccc2)CCCCC1 | inconclusive [inhibitor, partial curve, poor fit] | – |
| Cc1ccc(NCc2ccccc2O)cc1C | – | inactive: 56.5% |
| CCN(CC)S(=O)(=O)c1cc(NC(=O)CN2C(=O)NC3(CCCc4ccccc43)C2=O)ccc1C (stereo unspecified) | inconclusive [inhibitor, single point] | – |
| CCCCC(C(=O)NC1CCCC1)N(C(=O)c1snc(C(N)=O)c1N)c1ccc(C)cc1 (stereo unspecified) | inconclusive [inhibitor, partial curve] | – |
| COCCn1c(C)cc(C(=O)CSc2nc3nc(C)cc(C)n3n2)c1C | inconclusive [inhibitor, single point] | – |
| O=C(CSc1nc2ccccc2[nH]1)c1ccc(Cl)s1 | inconclusive [inhibitor, single point] | – |
| CN(CC(=O)NCC1CCCCC1)CC(=O)Nc1ccc(F)cc1 | inconclusive [inhibitor, single point] | – |
| CCc1ccc(NC(=O)CSc2nc(=O)n(CCN(C)C)c3c2CCCC3)cc1 | inconclusive [inhibitor, single point] | – |
| CCN(CCO)c1nc(NCc2ccccc2)c2cnn(C)c2n1 | inconclusive [inhibitor, single point] | – |
| O=C(CNc1ccccc1)N/N=C/c1c(O)ccc2ccccc12 | inconclusive [inhibitor, single point] | – |
| COCCNC(=O)N1[C@H]2CC[C@@H]1C(C(=O)OC)=C(c1ccc(-c3ccccc3)c(F)c1)C2 | inconclusive [inhibitor, partial curve, poor fit] | – |
| COc1ccc(/C=C/C(=O)c2cc(Br)ccc2OC(=O)c2ccco2)cc1OC | active: 11.7 µM | – |
| O=C(/C=C/c1ccccc1)Nc1cc(C(=O)O)cc(C(=O)O)c1 | inconclusive [inhibitor, single point] | – |
| Cc1cc(-c2nnc(-c3cccc(C(F)(F)F)c3)o2)no1 | – | inactive: 137% |
| Cc1ccc(Oc2nnc(-c3cccs3)c3ccccc23)cc1C | inconclusive [inhibitor, single point] | – |
| COc1ccc(S(=O)(=O)N2CCN(C(=S)NCC3CCCO3)CC2)cc1OC (stereo unspecified) | active: 1.85 µM | – |
| Cc1ccc(C(=O)NC(C(=O)OCc2cn3cc(Cl)ccc3n2)C(C)C)cc1 (stereo unspecified) | inconclusive [inhibitor, single point] | – |
| CN1CCN(CCC=C2c3ccccc3Sc3ccc(S(=O)(=O)N(C)C)cc32)CC1 | active: 11.7 µM | – |
